Article PMC12136788
The list shows a part of the results.

B1: chr4:148551591:148551592:-_ENSMUSG00000063077_ENSMUST00000060537|mus_hu|mus_mus_mus_hu_False|48_68 (ssRNA)
RNA: GGGAGUUCUACAGUCCGACGAUCACCUGACAAAAUUAAAUAUCCCUGUAAAUUAGACAAUAAGCAGCAGGUAACAAAGUCUUUGCUUUGAAAUAUGUGCCAGGAAAAGUCAUCUUGUUUUUAGAUCUCAAGAGACAGUUCACACAACAGAGGAUUGAGCAUCA
B2: chr4:101285476:101285477:+_ENSMUSG00000028528_ENSMUST00000094953|mus_mus|FALSE|FALSE (ssRNA)
RNA: GGGAGUUCUACAGUCCGACGAUCGAGUGGCUUGAAGUGAGGGCGGUAGGGCUUAUCUGCAAGUAGGUCGCACAUGUAGCCUAAGUACCUCCUGUGAGACGGAGACAGUCCAAUUCCUGGUCGCUUUGCGUAGAGUAAUCGAACCAACAGAGGAUUGAGCAUCA
B3: 13644904_13657380_983_CDS_ENSG00000010017_ENST00000011619|human|control|control (ssRNA)
RNA: GGGAGUUCUACAGUCCGACGAUCAUUGGCAUCGACCACUUCUCCUGGUGUUUGAAGCCCCACAGUAGGAUACAAAUUUGGCGGUAGGUCAGUGAAAGCAAUACCUAAACUAUGUCCAUUCUUGGUGUAAAAGCAGGUAUUGUUCAACAGAGGAUUGAGCAUCA
B4: chr3:14508043:14508044:+_ENSG00000131389_ENST00000360861|hu_mus|FALSE|FALSE (ssRNA)
RNA: GGGAGUUCUACAGUCCGACGAUCAGCACCUGGCAGGGUCAGUCCACGGACCAGCAGCACCAGAAGCAUGGCAAACGGGAAAGUAGCGGUGAAGUAGACAACCUUGCCUGUGGAUCGAACACCCUUCCAGAUGCAGAAAAAACACAACAGAGGAUUGAGCAUCA
B5: chr22:38884116:38884117:-_ENSG00000100201_ENST00000396821|hu_hu|motif|central (ssRNA)
RNA: GGGAGUUCUACAGUCCGACGAUCAUAAUCCUCUGAGCUGUUUGGAUAGUCAUAGUUGAUCACAAACUUGACAUCUUCCACAUCGGGCCCACGGGAGGCUACAUCUGUAGCAAUAAGGAUGGGUGCCUUUCCAGAACGGAACUCCAACAGAGGAUUGAGCAUCA
B6: chr6:86238017:86238018:-_ENSG00000135317_ENST00000369627|hu_hu|FALSE|FALSE (ssRNA)
RNA: GGGAGUUCUACAGUCCGACGAUCUGGAUGCUGCAGAAGUUUCUGUAGAUAUUCUUGGAACUCUUCCCUCUUUGACUUUAAGAAUUCAUAAUUUUUGGGGCCAAUGAUCCUCUUAGAAGGAAGCUGGGCAUCAGGAAAUGCACCCAACAGAGGAUUGAGCAUCA
B7: chr1:39494564:39494565:+_ENSG00000168653_ENST00000372967|hu_hu|hu_hu_hu_mus_True|38_108 (ssRNA)
RNA: GGGAGUUCUACAGUCCGACGAUCAUGUGCACGUCUCAUCGUUUUGUACCGAAGCAAGCACUCUUCGAAGUCAUCGAACUCUAUCUUGCACUCCUUUUCUGCCCGAGUCCCACCGAUCCCGUGUGCACACUCUAUCCACUCUUUCAACAGAGGAUUGAGCAUCA
B8: chr5:71516810:71516811:-_ENSG00000113048_ENST00000457646|hu_mus|FALSE|FALSE (ssRNA)
RNA: GGGAGUUCUACAGUCCGACGAUCCGCACUCAGCGCCUGGUACUCUUGCUUGGCCUUCUCCCUCUGUUCCUGCUCCCUCUGGAUCAACUGCACCCGCUCCAGGUGCCACUCACGGAGUUUCUGCUCGUAGGUGGCCAGGUCCUCCAACAGAGGAUUGAGCAUCA
B9: chr22:22143041:22143042:-_ENSG00000100030_ENST00000215832|hu_hu|FALSE|FALSE (ssRNA)
RNA: GGGAGUUCUACAGUCCGACGAUCAAUGUGGUUCAGCUGGUCAAGAUAAUGCUUCCCUGGAAAGAUGGGCCUGUUAGAAAGCAUUUCUGCCAGAAUGCAGCCUACAGACCAAAUAUCAAUGGACUUGGUGUAGCCCUUGGAAUUCAACAGAGGAUUGAGCAUCA
B10: chr3:179287964:179287965:+_ENSG00000136518_ENST00000429709|hu_hu|hu_hu_hu_mus_True|48_78 (ssRNA)
RNA: GGGAGUUCUACAGUCCGACGAUCCUUGAGUGGUGAGAUGGCCUCCAUGUUCUCCCUCGGAACACGCAGGGCAUUGGUGUCUAUGUAGUAGGUGGGACCGCCCUGCUUGCCUUUGUCACCAUCAAUCUCCAUCAUUGUACUUCCCAACAGAGGAUUGAGCAUCA
B11: chr6:52679276:52679277:+_ENSMUSG00000004535_ENSMUST00000080723|mus_mus|FALSE|FALSE (ssRNA)
RNA: GGGAGUUCUACAGUCCGACGAUCGUAACAGAACUGAUAAAAUUCUCCAUCAUCAUUUGGAAGGUAAUAUCCUUGAAAUGCUAGUACACAAUUGACUGUUGAUCCUUCCACAUAAUGUUCAGGCAUAGGAGACCAUAAAAAUGUCAACAGAGGAUUGAGCAUCA
B12: 52698872_52703203_226_CDS_ENSG00000157077_ENST00000287727|human|control|control (ssRNA)
RNA: GGGAGUUCUACAGUCCGACGAUCCUUAUUCCACUUUGUAUCCAAUAAAGUAGAAGAAACUGUUUCAUCUUCGUUUUGUUCAAAUUCAUCUAACACCUUGUCCAGGUUGUAAGCUUCUGCUUGGAAGUAAUUCUCCAUCGGUGACAACAGAGGAUUGAGCAUCA
B13: chr19:26705166:26705167:+_ENSMUSG00000024921_ENSMUST00000025862|mus_hu|FALSE|FALSE (ssRNA)
RNA: GGGAGUUCUACAGUCCGACGAUCUCCAGACAUAGGGCUGGAGACGUGCUCUGGGGCUCCUAAUGGAGAUGGGUGUGGUGACAUAUAACCUUGGCUGUGUUGAUCCAUUGGACUCUGGGGAGGGCCCAUGCCUGGGUGAGGUGGCAACAGAGGAUUGAGCAUCA
B14: chrX:101157612:101157613:-_ENSMUSG00000056537_ENSMUST00000070705|mus_hu|motif|central (ssRNA)
RNA: GGGAGUUCUACAGUCCGACGAUCUAUCAGUAACAGUGAUGCUACCAAUUUAACUGGUACGGAAAUCAGAUUUUUAGGUCCGGUAACGUGGCUUUUAAAAUAUUUCCUUUUAUUCUGGAACAAAAACUGGAGAAAGGACAAUGACAACAGAGGAUUGAGCAUCA
B15: chrX:71549762:71549763:+_ENSMUSG00000019087_ENSMUST00000019231|mus_mus|mus_mus_mus_hu_False|38_108 (ssRNA)
RNA: GGGAGUUCUACAGUCCGACGAUCAAAGUGUACCACUUCUUAUUGUUAGCACAACAUCACCAGAAAACGAUAACGACAGCCAAGCAGGACAGACAGUCAAGUAGUCUUUCCACACUCCCAAACUCAGGGAGCCCUAUAACCUUACAACAGAGGAUUGAGCAUCA
B16: chr2:32339754:32339755:+_ENSG00000021574_ENST00000315285|hu_hu|FALSE|FALSE (ssRNA)
RNA: GGGAGUUCUACAGUCCGACGAUCGCCUGAAAGGCCUGCAGAUCCAGUUUUCAUAACUGUUUUUGAACGAGGCAGUGAAUUACUAGUGUGUGUUAAGGGGUCUUUUCUUUUUGGAACAGCUCCACUUUCUGACUGGAGAUGUCCCAACAGAGGAUUGAGCAUCA
B17: 133316617_133326729_392_3pUTR_ENSG00000213585_ENST00000395044|human|control|control (ssRNA)
RNA: GGGAGUUCUACAGUCCGACGAUCUACCCUGUCUUGAUUUUAGCAUUUUUUUUCCCAGUGUUAGGUGAGAAGGAUGAAUCGAAGGUCAGCUUCAGUCCACGUGCAAGCUGAUCUUCCACAGUAAUCUCGGUGCCUAGUGUAUUGCAACAGAGGAUUGAGCAUCA
B18: 31863354_31864446_800_CDS_ENSG00000129493_ENST00000543095|human|control|control (ssRNA)
RNA: GGGAGUUCUACAGUCCGACGAUCCUUAAAACACAGUGUGGCCACACUGUCCAGGUCCGUACUCCACAUAAAGAUGGCUUCAUUCUGAAGUUCAAGGAGACACUUUGCAGCAGCACAACGAACAGCCAUGGAUCUAUCUGUCAACAACAGAGGAUUGAGCAUCA
B19: chr9:113828744:113828745:+_ENSMUSG00000033392_ENSMUST00000111838|mus_hu|motif|central (ssRNA)
RNA: GGGAGUUCUACAGUCCGACGAUCAAGUAAUGUUAUGUACAGUUUUAUUGCCAGUAUAUGCACAACAGUAAGCAUAGAACGGUAAAUACACAAUGUAAUUAACAGUAGAAAACAAAAUUGUUACAGGUAGAGGGAGAGGAUAUACAACAGAGGAUUGAGCAUCA
B20: chr16:94664741:94664742:+_ENSMUSG00000040785_ENSMUST00000117648|mus_hu|mus_mus_mus_hu_False|1_58 (ssRNA)
RNA: GGGAGUUCUACAGUCCGACGAUCUGGUACUGAUCUUGGUAGCUGAUAUUCAGGAGAAAGGCUGGCCAAGGGUGUAUAAAUGCUAGUGUACUGGGGCAAACCUGGUAACACGUUUAUGUAUGCUGGCGGUGUCUGGGUGCCAAACAACAGAGGAUUGAGCAUCA
B21: chr1:244855233:244855234:+_ENSG00000121644_ENST00000302550|hu_mus|hu_hu_hu_mus_True|58_108 (ssRNA)
RNA: GGGAGUUCUACAGUCCGACGAUCCAUUAAAUGAUAAGCGUUGCCCUUAUACUCUUUCCCCAGUUCUUCUACAAUUUUUUCUAUAUCAUCUUCUAGAAAGUCCGUACUUCCUAGAACAACAGCUUCUUUAAAUUUAAAUGUUUCCAACAGAGGAUUGAGCAUCA
B22: chr10:5944071:5944072:+_ENSMUSG00000019763_ENSMUST00000042251|mus_mus|motif|central (ssRNA)
RNA: GGGAGUUCUACAGUCCGACGAUCUCCCCAGCAUCUCUGCAGAGAGCUGGAAAGAAAGGCCACACACUCGCCUUGGCAGUACGGGCAAGCACAGCAUCAGCAAGAUGUCACUGAAUGUGUAUUCUCUGGUGUAGUCGGCCAAGGCAACAGAGGAUUGAGCAUCA

The binders below were run against T1, UNK ZnF1-3 (human, UniProt Q9C0B0 31-174) (assay: nsRBNS (natural sequence RNA bind-n-seq); RBNS binding buffer (assumed for nsRBNS): 25 mM Tris pH 7.5, 150 mM KCl, 3 mM MgCl2, 0.01% Triton X-100, 500 ug/ml BSA, 20 U/ml SUPERase-In, 4 C; UNK is unkempt and MSI1 is Musashi-1; names of the RNAs are library labels; protein concentration not given here; high values mean tight binding).
T1 sequence: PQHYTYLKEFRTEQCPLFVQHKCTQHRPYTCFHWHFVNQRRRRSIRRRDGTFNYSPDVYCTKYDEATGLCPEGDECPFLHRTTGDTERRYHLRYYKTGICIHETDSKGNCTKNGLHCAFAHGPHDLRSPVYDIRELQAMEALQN
Binder B1 has a binding signal of 1 enrichment R. In the case of B2, the binding signal is reported as 0.783 enrichment R. Binder B3 has a binding signal of 1.26 enrichment R. With B4 the binding signal was 1.44 enrichment R. For B5, the binding signal was 0.778 enrichment R. Binder B6 has a binding signal of 1.28 enrichment R. Binder B7 has a binding signal of 0.635 enrichment R. B8 was tested, and the binding signal was 0.679 enrichment R. In the case of B9, the binding signal is reported as 0.949 enrichment R. With B10 the binding signal was 0.473 enrichment R. B11 gave a binding signal of 0.75 enrichment R. Binder B12 has a binding signal of 0.763 enrichment R. Work on B13 yielded a binding signal of 1.31 enrichment R. Work on B14 yielded a binding signal of 1.08 enrichment R. B15 was tested, and the binding signal was 1.02 enrichment R. With B16 the binding signal was 0.761 enrichment R. With B17 the binding signal was 0.707 enrichment R. With B18 the binding signal was 1.16 enrichment R. With B19 the binding signal was 1.3 enrichment R. Binder B20 has a binding signal of 1.09 enrichment R. With B21 the binding signal was 1.44 enrichment R. B22 showed a binding signal of 0.907 enrichment R.
